Measurements taken from the supplement of paper PMC11417369.
± gives the standard deviation of the averaged measurements. The list shows a part of the results.

system: PfAP2-I AP2 domain 3 (GST-tagged); test: gcPBM binding intensity (ln(normalized median fluorescence intensity)); higher = stronger DNA binding
Procedure, shortened: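 Probes on an Agilent 4 × 180k array were primer-extended, double-stranded and 36 bp long, taken from intergenic genomic regions, with negative controls added. GST-tagged P. falciparum DNA-binding domains from E. coli, about 25 μg on average, were applied to the array for 1 h in 1× PBS containing 1% milk, 0.2 mg/ml BSA, 0.5% salmon testes DNA and 0.03% Triton X-100. Binding intensity, obtained after Alexa488 anti-GST antibody detection and a 488 nm scan, is the highest Masliner-normalised natural-log median intensity across replicate spots of either probe orientation.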

| Sequence | gcPBM binding intensity (ln) |
| --- | --- |
| TGAACATATTAAAATTGTACATATGCACAATATGTA [XGTACX_site6801] | 8.53 ± 0.29 |
| AAGGATATAACATACACACACACACGGATATAAATA [CACACA_site7867] | 7.91 ± 0.6 |
| CATACAATAAATATGGTGCATTTTATGTAACCGTTT [GTGCAC_site9420] | 10.2 ± 0.39 |
| TAAAAGTTAATATAAACACACAAAAATTAATAAATA [CACACA_site6316] | 7.66 ± 0.61 |
| AATTTCTATTTTGTGAGTACATACTCCTATTATATA [XGTACX_site3210] | 8.03 ± 0.5 |
| ATAATGGAGAAATAAGCATGCATTATATTATAAAAA [TGCATGCA_site325] | 8.01 ± 0.98 |
| TGAATATTTCTATATACACACATATAAATATAAATA [CACACA_site7593] | 7.55 ± 0.31 |
| AAAAAAAAAAAAATGTAATTTTTTAATTATTTATAT [GTGCAC_negctrl_site436] | 7.27 ± 0.37 |
| CATATATTTTTGTATAGTACTTTTTTTATTCGTTTT [XGTACX_site1860] | 7.84 ± 0.56 |
| ATATTACTTCCTAAGTGTACAAGTAAGGAGAAAAAA [XGTACX_site3921] | 8.22 ± 0.42 |
| GATAAAATGGATGGATGTACATTATTTCCATATAAT [XGTACX_site7781] | 7.66 ± 0.72 |
| AGATGTTTTTATATATGTACTTAAATACACAAATAT [XGTACX_site8250] | 8.03 ± 0.35 |
| AAAAAAAAAAAAAACACACACACAAAATAAACAAAC [CACACA_site2720] | 8.42 ± 0.45 |
| TTATCGGTATAATATAGTACATATAGATATATAATA [XGTACX_site1440] | 7.7 ± 0.39 |
| TGATAATTTTTTACATGTACAAGTTTGTTTTTGCAT [XGTACX_site125] | 7.88 ± 0.39 |
| ATTCTTTATTATTCGCCACACACATATATATATATA [CACACA_site9009] | 9.32 ± 0.28 |
| TATTGGAAAATTAGAAGTACTTTCATATATTAGACT [XGTACX_site4503] | 7.75 ± 0.36 |
| TTTTTATTATTCCATAGTACAGAAAAAATGATATAT [XGTACX_site3431] | 7.88 ± 0.49 |
| ATACCTACATACATACGTACATATATATATATAATG [XGTACX_site234] | 8.49 ± 0.33 |
| TAGATTTTTATGCGTGCACACATTTAAAAAAAAAAC [CACACA_site3421] | 10.3 ± 0.25 |
| AAATATAATAACATAACACACACATGTATTTATAGG [CACACA_site8009] | 7.78 ± 0.49 |
| TTTTAATAAATTCAAAACATAAAAAGGAAAAAAAAA [XGTACX_negctrl_site471] | 7.78 ± 0.83 |
| TATAATGAGAAGATATAATATATAGGGGGTAATTCT [GTGCAC_negctrl_site228] | 8.01 ± 0.64 |

| Sequence | gcPBM binding intensity (ln) |
| --- | --- |
| TTTTTTTCATAAGAAGCACACAAAAAATGATAGAGA [CACACA_site8401] | 8.29 ± 0.4 |
| ATATATATATATATATGTACTTATTTGTATAAATAC [XGTACX_site8031] | 9.19 ± 0.39 |
| AGGATATAATACCATACACACATTTATAAAATAACA [CACACA_site1930] | 7.74 ± 0.49 |
| ATAATATGAAAACACACACACACACCCAAAAAAAAA [CACACA_site2011] | 8.44 ± 0.18 |
| CACATTAATTTTTGGGTGCACTTGGGAAATTTTGGT | 10.9 ± 0.51 |
| ATATATATTATATATATATATATATATATATATATA [CACACA_negctrl_site493] | 9.03 ± 0.59 |
| AACAAATACGAACACACACACACACTAAAAAAAAAA [CACACA_site6386] | 8.27 ± 0.59 |
| TGTAATCAAAAAAATAGTACATAAATTGTGTATACT [XGTACX_site5908] | 7.78 ± 0.43 |
| TAATAAATAAATGACACACACACACGCAAAAAAAAA [CACACA_site7275] | 8.35 ± 0.42 |
| ATATTTTCCCTTGTTTTACACACGTGCTGATATGAG [CACACA_site8672] | 8.59 ± 0.85 |
| AATTTGAAATATGTGGTGCAGTTATATAATATGTTT [GTGCAC_site9885] | 10.02 ± 0.028 |
| ATATAGAATAAAACTATACACACCTATATTTAAACA [CACACA_site1902] | 7.66 ± 0.42 |
| TGTAGTCTGGAGAAAAGTACACAGTATCTGGTAACC [XGTACX_site2033] | 7.88 ± 0.6 |
| CTTGTATAGAAACACACACACACTTTCTTTTTTTAA [CACACA_site1964] | 7.88 ± 0.69 |
| TATATTAATAAAGGTACTACACGGAAATGGAAATAT [XGTACX_site7760] | 8.58 ± 0.67 |
| ATATAAAAAAATAATAAATAAATAAAAAGATTTCTT [XGTACX_negctrl_site110] | 7.29 ± 0.73 |
| TATAAAAAGCATAACACACACATGTCAATATATATA [CACACA_site1111] | 8.12 ± 0.74 |
| ATAGAACAGAAAAGGCGTACAATAATATGTAAACAA [XGTACX_site2828] | 7.97 ± 0.36 |
| AAAAAAAAAATATGTACACACATATATAATACATAA [CACACA_site1639] | 7.88 ± 0.26 |
| TTAAGTCCGTTAACAGTGCATTTTTTCTTTTATGTA [GTGCAC_site9867] | 8.97 ± 0.45 |
| AGAAAAGAGAAAAGTAGTACAAAGGATCATTTAAAA [XGTACX_site5294] | 7.75 ± 0.47 |
| ATTAAAAAAATATAAACACACAAAAAAAAAATATAC [CACACA_site1100] | 8.09 ± 0.69 |
| TAATGAAAAAATAAAAGAATAAATAAATAAATAAAT [TGCATGCA_negctrl_site130] | 8.09 ± 0.85 |

| Sequence | gcPBM binding intensity (ln) |
| --- | --- |
| ATTACATGATATATCACACACACATATAGATATATA [CACACA_site7352] | 7.99 ± 0.59 |
| GCTATTAATTTATAAGCACACAATATAAATATATAT [CACACA_site2251] | 8.46 ± 0.057 |
| TACACGTTCTACATTTGTACTTAATTTATACATAAG [XGTACX_site1579] | 8.17 ± 0.37 |
| TACGTCTTTTTTTTGGTGCATAATTTTTTTGTACAA | 11.2 ± 0.44 |
| AATTTTGTTAAAAGGACACACAATTCAATATATTAA [CACACA_site647] | 7.69 ± 0.51 |
| ATTTATTTAAACAAATCACACACAAATATATATACA [CACACA_site8622] | 7.73 ± 0.35 |
| TATATTAAAATATTCACACACTAACGTAAATCATTG [CACACA_site5520] | 7.45 ± 0.52 |
| TATGTCGACATTTAAAGTACAAAAAAAAAAAAAAAA [XGTACX_site8985] | 8.12 ± 0.47 |
| TAAAAATCCACAAGCACACAAATGTACATATATATA [CACACA_site2462] | 8.25 ± 0.71 |
| CATACATAGATATATACACACATACCTATAAATACA [CACACA_site6513] | 7.95 ± 0.3 |
| TATATATGTGTTATATACCCTTTTTTATATATTAAT [XGTACX_negctrl_site313] | 7.76 ± 0.6 |
| TATGAAAAGATATATACACACATAATAAAGGTATAT [CACACA_site7713] | 7.76 ± 0.63 |
| CATTATTATTAACATACACACGTGTTAAATACACCC [CACACA_site6118] | 8.47 ± 0.63 |
| ATTAAAACAAAATGTACACACATATCATTTAATGAC [CACACA_site6543] | 7.72 ± 0.37 |
| CTATTTCAATTTAGTGCACACATTTTAATTTATAAG [CACACA_site2040] | 11.4 ± 0.49 |
| ACATACACATATACATGTACATATATATATATATAT [XGTACX_site5082] | 9.31 ± 0.97 |
| TTTTAATCTTAATTATGTACATATAAAATGTGTATA [XGTACX_site7382] | 7.71 ± 0.39 |
| ATATTCATTAACCACACACACAAAAAAAATAAAATT [CACACA_site3801] | 8.02 ± 0.41 |
| ATATATGTATTTAATACACACAAAACTTTCATTCCA [CACACA_site3531] | 7.9 ± 0.62 |
| TTTTTAGAAAGACATGCATGTAATAAAAATAAATAA [TGCATGCA_site685] | 7.8 ± 0.7 |
| ATACATATATGCTTCTGTACACATAATTTATAAAAA [XGTACX_site7000] | 8.43 ± 0.47 |
| CATATGTCTTGAGATCGTACGTTATTTTTTTTATTT [XGTACX_site1381] | 7.79 ± 0.56 |
| AAAAATTATATATATATATATATATATATATGTATA [GTGCAC_negctrl_site488] | 8.38 ± 0.52 |

| Sequence | gcPBM binding intensity (ln) |
| --- | --- |
| TGGTAAATTTACCGTTGTACATTCATTTATAACATT [XGTACX_site8910] | 7.72 ± 0.67 |
| AAGAATATTAATATAAATAAGTAAATAAATAAATAA [CACACA_negctrl_site417] | 7.82 ± 0.7 |
| TATAAATTTAAAATGACACACACTAAAATTATTTAA [CACACA_site1239] | 7.58 ± 0.53 |
| TATATATATATATATATATATATATATATATGTATA [TGCATGCA_negctrl_site17] | 9.07 ± 0.75 |
| GTATTATTATTATGCACACAAAAATATTTATACATA [CACACA_site3656] | 10.3 ± 0.46 |
| ATATATATATAATCAAGTACACAGTAATAAAAAGAA [XGTACX_site1070] | 9.06 ± 0.19 |
| ATTGTGTTCATCAGCACACACAACATCATGCAATAA [CACACA_site6960] | 8.13 ± 0.52 |
| AATAATAACTGTAGGTGTACGTAAAAAAAAAATTAT [XGTACX_site3133] | 8.22 ± 0.67 |
| TTTTTTTTTTTTTGTTGTACAATACTTAATCATTAT [XGTACX_site3422] | 8.02 ± 0.55 |
| AAAAAAAGATTATACACACACATATATAAACCTACA [CACACA_site710] | 7.65 ± 0.42 |
| TTTTTTTTTTTTGAAACATGCATTGTTTTATTCTTA [TGCATGCA_site15] | 7.99 ± 0.85 |
| TCTATACCTATTCTTACACACATATGTATATATATA [CACACA_site563] | 8.63 ± 0.46 |
| TTTCAAAATGTGTAAAATAAAAATAATATCATTACA [TGCATGCA_negctrl_site521] | 7.59 ± 0.29 |
| ATGTGATATAAGTACACACACATATGTATATAGAAT [CACACA_site1823] | 8.16 ± 0.56 |
| AATATAGATATAACCACACACATACATCTAATTCTA [CACACA_site1760] | 7.84 ± 0.57 |
| AATGTATATATGTAATGTACATATGTAATGTATATA [XGTACX_site6509] | 7.87 ± 0.37 |
| TTTTGTTTTGTTTTGTTTTGTTTTGTTTTATTTTAT [GTGCAC_negctrl_site383] | 7.61 ± 0.61 |
| TGTTTCTTATTTTTTTCACACACTAAACATTTCAAA [CACACA_site2218] | 8.22 ± 0.57 |
| GAAAAGAACAAGAGCATGCACTTAATAAGAATAATA | 7.89 ± 0.69 |
| AATAAAAAAAGTTTTTTTTTTTTTTAAACAATAGAC [CACACA_negctrl_site1061] | 7.71 ± 0.47 |
